Source: the GPR68 mutational scans of Howard et al. (2025)

B1: GPR68, Q15743 (parent)
chain: MGNITADNSSMSCTIDHTIHQTLAPVVYVTVLVVGFPANCLSLYFGYLQIKARNELGVYLCNLTVADLFYICSLPFWLQYVLQHDNWSHGDLSCQVCGILLYENIYISVGFLCCISVDRYLAVAHPFRFHQFRTLKAAVGVSVVIWAKELLTSIYFLMHEEVIEDENQHRVCFEHYPIQAWQRAINYYRFLVGFLFPICLLLASYQGILRAVRRSHGTQKSRKDQIQRLVLSTVVIFLACFLPYHVLLLVRSVWEASCDFAKGVFNAYHFSLLLTSFNCVADPVLYCFVSETTHRDLARLRGACLAFLTCSRTGRAREAYPLGAPEASGKSGAQGEEPELLTKLHPAFQTPNSPGSGGFPTGRLA

Assays:
[1] = variants of: B1; test: cAMP reporter score (Enrich2 score, wild type = 0); higher = more signal; HEK293T, FACS bins
[2] = variants of: B1; test: surface expression score (Enrich2 score, wild type = 0); higher = more signal; HEK293T, FACS bins

Variant | cAMP reporter score ([1]; pH 5.5) | cAMP reporter score ([1]; pH 6, modulator: ogerin) | cAMP reporter score ([1]; pH 6.5, modulator: ogerin) | cAMP reporter score ([1]; pH 6) | surface expression score [2]
S271_L272insGS | -0.416 | -0.648 | -0.441 | – | –
S271_L273del | -1.5 | -1.32 | -0.997 | -0.817 | –
S271del | -2.06 | -1.37 | -1.24 | -1.04 | -2.92
L272A | -0.519 | – | -0.837 | -0.131 | -0.923
L272C | -1.68 | -1.1 | -1.36 | -1.36 | -0.742
L272D | -0.422 | -0.616 | – | – | –
L272E | -1.06 | -1.31 | -0.944 | -0.28 | -0.785
L272F | 0.12 | 0.896 | 2.28 | 0.371 | -1.01
L272G | -1.25 | -2.02 | 0.375 | -0.739 | –
L272H | 0.566 | 0.183 | -0.105 | -0.559 | -1.85
L272I | -1.03 | -1.55 | -1.04 | -1.25 | 0.548
L272K | -1.17 | -0.935 | -0.513 | -0.367 | –
L272M | -0.051 | – | – | – | –
L272N | -1.25 | -1.97 | -0.795 | -1.18 | -1.61
L272P | -1.81 | -1.31 | -1.7 | -1.3 | -2.56
L272Q | -0.314 | -0.918 | – | 0.882 | -0.337
L272R | -0.539 | -0.43 | -0.436 | -1.01 | -0.934
L272S | -1.41 | -1.99 | -1.8 | -0.349 | -1.96
L272T | -1.25 | -1.55 | -1.19 | -1.37 | -1.44
L272V | -0.31 | 0.214 | -0.821 | – | -0.691
L272W | -0.548 | -1.51 | -1.36 | -0.689 | -0.766
L272Y | -1.5 | -1.91 | -1.83 | -1.64 | -0.923

Variant | cAMP reporter score ([1]; pH 5.5) | cAMP reporter score ([1]; pH 6, modulator: ogerin) | cAMP reporter score ([1]; pH 6.5, modulator: ogerin) | cAMP reporter score ([1]; pH 6) | surface expression score [2]
L272_L273del | -1.45 | -1.57 | -1.06 | -0.58 | -1.33
L272_L273insG | -1.25 | -1.91 | -2.18 | -1.75 | -2.13
L273_T275del | -1.21 | -1.48 | -1.09 | -0.648 | -2.51
L274A | -0.534 | 0.015 | -0.451 | -0.94 | 0.313
L274C | -0.421 | -0.153 | -0.859 | -1 | -0.969
L274D | -1.65 | -1.38 | -1.53 | -1.21 | -1.8
L274E | -2.16 | -1.33 | -1.78 | 0.342 | -2.07
L274F | -1.18 | -0.718 | -1.07 | – | -0.246
L274H | -1.56 | -1.21 | -1.42 | -0.697 | -2.22
L274I | -0.574 | -1.22 | -1.32 | -1.56 | -1.44
L274K | 0.016 | – | -2.47 | -0.706 | –
L274M | -0.073 | -0.276 | -0.384 | -0.78 | -0.217
L274N | -1.19 | – | -1.8 | -1.28 | -2.53
L274P | -2.25 | -1.62 | -0.877 | -0.771 | -2.17
L274Q | -1.37 | -1.75 | -0.948 | -1 | -2.3
L274R | -0.481 | -0.643 | – | – | –
L274S | -2.32 | -0.965 | -1.95 | -2.12 | -2.37
L274V | -0.383 | -1.07 | -1.33 | -0.948 | -0.776
L274W | -1.49 | – | -0.014 | – | –
L274Y | -2.48 | -2.9 | -1.68 | -1.05 | -2.13
L274_S276del | -1.3 | -1.71 | -0.627 | -1.28 | -3.09
L274_T275insGS | -1.28 | -1.54 | -1.04 | -0.605 | -3.12

Variant | cAMP reporter score ([1]; pH 5.5) | cAMP reporter score ([1]; pH 6, modulator: ogerin) | cAMP reporter score ([1]; pH 6.5, modulator: ogerin) | cAMP reporter score ([1]; pH 6) | surface expression score [2]
L274_T275insGSG | -1.11 | – | -0.648 | -0.658 | -2.14
T275A | -0.319 | -0.694 | -0.892 | -1.75 | 2.47
T275C | -0.698 | -2.05 | -0.751 | -1.3 | 0.824
T275D | -1.15 | -2.33 | -1.93 | -1.58 | -1.53
T275E | -1.05 | -0.771 | -1.26 | -0.305 | -2.22
T275F | -1.6 | – | -1.23 | -0.191 | -2.03
T275G | -1.2 | – | -0.977 | -1.57 | –
T275H | -1.76 | -1.71 | -1.38 | -1.5 | -1.89
T275I | -0.078 | -0.87 | -1.28 | -0.16 | -1.13
T275K | -1.91 | -2.21 | -1.75 | -0.987 | -2.96
T275L | -0.214 | -0.474 | -0.478 | -0.725 | -0.369
T275M | -0.04 | -1.1 | -1.1 | -0.575 | 0.024
T275N | -1.42 | -1.93 | -0.486 | -0.779 | –
T275P | -0.509 | -1.19 | -1.34 | 0.065 | -1.63
T275Q | -0.729 | -1.06 | -0.131 | -1.17 | -1.83
T275S | -0.132 | -0.615 | -0.146 | – | 0.237
T275V | 0.707 | 0.7 | 0.433 | 0.059 | 0.575
T275W | -1.35 | – | -1.54 | -0.451 | -2.21
T275Y | -1.51 | -1.02 | -1.09 | -2.07 | -2.12
T275_S276del | -0.413 | – | – | – | –
T275_S276insGS | -0.745 | -1.24 | -1.74 | -0.007 | -1.71
S276_F277insGS | -0.846 | -1.84 | -1.03 | -0.731 | -2.52

Scores with a large standard error are left out. The source holds two more conditions with little spread; they are left out. Names with del lack the residues named; names with ins carry added residues between the positions named. For part of these data: The concentration of ogerin is not given here.
